Where a chain is given by its changes, count along the chain named. Results are given in words; binding and its absence hold for the method and conditions named. Some binding calls cover weakened binding; strength is not graded here. Where a sequence is shown, tags or fusion partners need not be part of it.
Experiments:
[1] = biological target: T1, purified full length FLAG-GFP-tagged KDM2A (WT) (human) (UniProt Q9Y2K7); assay: pull-down; as a6 but nucleosomes with CpG-methylated 601-DNA (M.SssI), which does not bind KDM2A; 2 μg purified full length FLAG-GFP-KDM2A (WT or V801A/L803A) and 2 μg HP1α; both purified
T1 sequence: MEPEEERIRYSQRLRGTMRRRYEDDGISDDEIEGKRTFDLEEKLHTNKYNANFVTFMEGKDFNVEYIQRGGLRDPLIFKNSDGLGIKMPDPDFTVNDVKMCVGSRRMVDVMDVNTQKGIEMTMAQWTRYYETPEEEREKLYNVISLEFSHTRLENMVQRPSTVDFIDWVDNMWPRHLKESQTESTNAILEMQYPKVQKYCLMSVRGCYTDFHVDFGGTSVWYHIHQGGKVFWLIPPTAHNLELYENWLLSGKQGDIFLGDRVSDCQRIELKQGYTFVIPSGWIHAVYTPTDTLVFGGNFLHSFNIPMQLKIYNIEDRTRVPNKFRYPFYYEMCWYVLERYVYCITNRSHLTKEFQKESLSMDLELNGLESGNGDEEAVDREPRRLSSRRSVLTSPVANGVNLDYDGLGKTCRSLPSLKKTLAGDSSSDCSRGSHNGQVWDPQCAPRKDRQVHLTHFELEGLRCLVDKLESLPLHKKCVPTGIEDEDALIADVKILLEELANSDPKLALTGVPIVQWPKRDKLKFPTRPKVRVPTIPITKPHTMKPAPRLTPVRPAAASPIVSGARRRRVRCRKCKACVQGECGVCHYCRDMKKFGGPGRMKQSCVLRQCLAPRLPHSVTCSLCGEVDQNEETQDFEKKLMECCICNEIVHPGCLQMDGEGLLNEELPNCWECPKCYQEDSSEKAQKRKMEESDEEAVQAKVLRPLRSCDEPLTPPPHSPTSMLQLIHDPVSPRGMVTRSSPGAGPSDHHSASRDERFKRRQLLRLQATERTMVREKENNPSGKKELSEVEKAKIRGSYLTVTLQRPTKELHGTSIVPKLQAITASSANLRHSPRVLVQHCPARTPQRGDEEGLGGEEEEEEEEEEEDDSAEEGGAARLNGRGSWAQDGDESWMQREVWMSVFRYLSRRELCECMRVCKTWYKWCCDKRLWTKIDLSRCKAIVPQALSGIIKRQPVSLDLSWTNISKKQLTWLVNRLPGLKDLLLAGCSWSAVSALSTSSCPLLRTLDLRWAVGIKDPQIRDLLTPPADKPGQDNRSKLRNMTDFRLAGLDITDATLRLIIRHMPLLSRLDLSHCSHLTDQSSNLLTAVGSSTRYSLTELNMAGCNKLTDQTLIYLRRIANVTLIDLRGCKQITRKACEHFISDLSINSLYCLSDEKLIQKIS

Protein sequences, listed by entry. Tags and fused reporters are not part of them.
UniProt P45973: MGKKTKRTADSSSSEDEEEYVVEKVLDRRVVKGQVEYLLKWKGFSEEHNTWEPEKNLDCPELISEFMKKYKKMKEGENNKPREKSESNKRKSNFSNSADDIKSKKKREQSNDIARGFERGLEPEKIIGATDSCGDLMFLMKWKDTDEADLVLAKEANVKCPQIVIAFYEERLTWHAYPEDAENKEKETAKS

[2] = biological target: T2, purified full length FLAG-GFP-tagged KDM2A S603D (human) (UniProt Q9Y2K7); assay: pull-down; nucleosomes (2.5 μg octamer, unmethylated biotinylated 601-DNA) immobilised on streptavidin beads, incubated with 2 μg purified full length FLAG-GFP-KDM2A (WT or mutant) and 2 μg HP1α in 1 ml binding buffer (20 mM HEPES pH7.9, 150 mM NaCl, 0.1% NP40); immunoblot; both purified
T2 sequence: T1 sequence with S603D

For “recombinant purified HP1α (WT) (from UniProt P45973 1-191)”, the binding [1] was “binds” and the binding [2] was “binds”.

Source: paper PMC5388433
